Consider 111 compounds from PubChem BioAssay AID488969 (Vanderbilt High Throughput Screening Facility, 2010).

In all, about 110,000 compounds were measured (“z-score”: median about -0.1, highest 2% from about 2 on). The list shows a part of the results. The source made the active and inactive calls.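 How the source made its calls: active means z-score in the third read window above 3 or below -3; inactive means the rest.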

In this experiment the target is Metabotropic glutamate receptor 8 (Rattus norvegicus) (UniProt P70579). The experiment in a line: mGluR8 Gi/Go-coupled signaling modulation – cell-based, rat, thallium flux, HTS, primary screen (AID 488969). The note with it: HEK293 rat mGluR8, GIRK (G protein-gated inwardly rectifying potassium channel) thallium flux, FluoZin2; at 10 µM; stronger effect = higher value; submaximal glutamate (EC20) added with thallium.
Chain of UniProt P70579 (P70579 whole entry, looked up): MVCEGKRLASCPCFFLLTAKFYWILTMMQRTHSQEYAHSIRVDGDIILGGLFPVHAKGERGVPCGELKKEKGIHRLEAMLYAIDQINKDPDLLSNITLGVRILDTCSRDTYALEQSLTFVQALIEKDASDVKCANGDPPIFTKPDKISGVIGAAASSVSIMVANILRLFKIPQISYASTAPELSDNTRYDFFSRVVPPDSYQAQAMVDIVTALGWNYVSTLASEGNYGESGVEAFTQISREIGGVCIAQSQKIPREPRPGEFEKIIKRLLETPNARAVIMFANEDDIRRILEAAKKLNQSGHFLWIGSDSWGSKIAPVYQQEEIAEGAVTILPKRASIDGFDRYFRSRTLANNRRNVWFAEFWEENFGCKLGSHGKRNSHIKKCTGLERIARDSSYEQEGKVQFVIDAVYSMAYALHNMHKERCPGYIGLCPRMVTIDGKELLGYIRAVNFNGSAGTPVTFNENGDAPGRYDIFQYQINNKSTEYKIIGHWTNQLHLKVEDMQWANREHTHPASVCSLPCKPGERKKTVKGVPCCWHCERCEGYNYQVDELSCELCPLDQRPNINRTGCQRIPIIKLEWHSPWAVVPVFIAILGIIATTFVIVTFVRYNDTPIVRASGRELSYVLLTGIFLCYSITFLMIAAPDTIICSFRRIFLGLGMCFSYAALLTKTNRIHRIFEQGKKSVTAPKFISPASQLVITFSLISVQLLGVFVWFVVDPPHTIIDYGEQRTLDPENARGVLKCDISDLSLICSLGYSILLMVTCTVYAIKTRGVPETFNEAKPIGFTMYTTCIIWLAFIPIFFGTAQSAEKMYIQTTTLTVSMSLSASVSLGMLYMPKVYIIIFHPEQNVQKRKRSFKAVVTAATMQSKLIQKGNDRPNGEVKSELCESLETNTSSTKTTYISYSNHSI
The compound `CC1Cc2nc(SCC(=O)Nc3nccs3)n(C)c(=O)c2S1` (stereo unspecified) showed a z-score of -0.571.

As for `O=C(Cn1cnc2ccccc2c1=O)Nc1ccc2c(c1)OCO2`, the z-score is -0.353.

`CC(C)c1[nH]nc2c1C(c1cccc(OC(=O)N3CCOCC3)c1)C(C#N)=C(N)O2` (stereo unspecified) showed a z-score of -1.23.

For `Cc1cc(C)n(CC(=O)Nc2ccccc2)n1`, the z-score was 0.708.

`O=C(NC1(C(F)(F)F)NC(=O)N(C2CCCCC2)C1=O)c1cccs1` (stereo unspecified): the z-score was 0.175.

For the compound `CC1CCCN(c2nc(-c3cccnc3)nc3scc(-c4ccccc4)c23)C1` (stereo unspecified), the z-score was -0.0274.

In the case of `O=C(Nc1ccccc1)OCCNC(=O)c1cccc(Cl)c1`, the z-score was 0.214.

The compound `Cc1noc(C)c1S(=O)(=O)N1CCC(C(=O)NCCN2CCC(C)CC2)CC1` showed a z-score of 1.3.

Compound `O=C(c1sc2cc([N+](=O)[O-])ccc2c1Cl)N1CCOCC1` yielded a z-score of -0.116.

Consider `O=C(CN(C1CC1)S(=O)(=O)c1ccc(S(=O)(=O)NC2CCCCC2)cc1)Nc1ccccc1`, for which the z-score was -1.33.

On to `CC(=O)N(C)C1=C(O)c2ccccc2C(=O)C1=O`, for which the z-score was -0.0878.

`C/C(=N\NC(=O)c1nn(C)cc1Br)c1ccncc1` registered a z-score of -0.273.

`Cc1cccc(C(=O)Nc2ccc(C(=O)/C=C/c3cccnc3)cc2)c1`: the z-score was -0.232.

In turn, `Cc1ccc(-c2nnn(CC(=O)N3c4ccccc4CCc4ccccc43)n2)cc1` had a z-score of -0.119.

In turn, `COC(=O)c1nn(-c2ccccc2)ccc1=O` gave a z-score of -0.17.

Regarding `Nc1nc(N2CCN(C(=O)c3ccco3)CC2)nc2ccccc12`, the z-score is -0.159.

On to `Cc1c(NC(=O)C2(c3ccccc3)CCOCC2)c(=O)n(-c2ccccc2)n1C`, for which the z-score was 0.381.

The compound `CCN(C(=O)CCc1nc(-c2ccccc2F)no1)c1cc(OC)ccc1OC` gave a z-score of -0.172.

`COc1ccc(/C=N/n2c(C)cc(C)c(C(N)=O)c2=O)cc1` registered a z-score of -0.0455.

Take `COc1c(C)cc(Br)cc1C(=O)NCc1cccnc1`: the z-score worked out at 0.689.

As to `CCCn1c(SCC(=O)c2ccc3c(c2)OCCO3)nnc1-c1ccco1`, the z-score turned out to be 0.0203.

In the case of `CCOC(=O)C1C(C(=O)OCC)C1(c1ccccc1)c1ccccc1` (stereo unspecified), the z-score worked out at 0.164.

The compound `CC1(C)SC(=S)N(NC(=O)Nc2ccccc2)C1N(O)C(=O)Nc1cccc2ccccc12` (stereo unspecified) showed a z-score of 0.0402.

The compound `Cc1ccc(CN2C(=O)CCC2C(=O)NC2CC2)cc1` (stereo unspecified) showed a z-score of 1.03.

Take `COc1ccc(C(CNC(=O)c2cc(C)oc2C)N2CCOCC2)cc1` (stereo unspecified): the z-score was found to be 0.0164.

On to `CSc1nc2ccc(S(=O)(=O)N3CCc4ccccc43)cc2s1`, for which the z-score is -0.0505.

`C/C(=N\NC(=O)c1ccccc1)c1ccc2c(c1)OCO2` displayed a z-score of -0.195.

Take `CN(Cc1nc(-c2cccnc2)no1)S(=O)(=O)c1ccc(Br)cc1`: the z-score was 0.309.

`O=c1c([N+](=O)[O-])cc(C(F)(F)F)cn1Cc1cccc(Cl)c1` showed a z-score of -0.172.

Turning to `Cc1noc(C)c1COC(=O)c1ccc(-c2nc3ccccc3s2)s1`, the z-score was determined as 0.398.

`COc1ccccc1C(=O)NCC(=O)n1nc(C)cc1C` showed a z-score of -0.514.

Consider `Cc1ccc(-c2cc(C(F)(F)F)n3ncc(C(=O)NCc4ccco4)c3n2)cc1`, for which the z-score is -0.234.

Turning to `Cc1cccn2c(=O)c(/C=C(\C#N)S(=O)(=O)c3ccccc3)c(N3CCC(C(N)=O)CC3)nc12`, the z-score was -0.378.

In the case of `Cc1ccccc1-n1c(C)nnc1SCc1nc2ccccc2s1`, the z-score was -0.699.

Consider `COc1ccc(CCNc2oc(COc3ccccc3)nc2C#N)cc1`, for which the z-score was -0.509.

`COc1nc(C)ccc1-c1noc(-c2ccncc2)n1` had a z-score of 0.588.

`O=C(Nc1ccn(Cc2c(F)c(F)cc(F)c2F)n1)c1ccc(COc2ccccc2Cl)cc1` came in with a z-score of 0.00499.

Regarding `COc1ccc(-c2c3c([nH]c(=S)c2C#N)CCC3)cc1`, the z-score came out at 2.17.

Take `Cn1c(=O)[nH]c(=O)c2c1nc(NCCCO)n2Cc1ccc(F)cc1`: the z-score is 0.293.

The compound `CN(C)C(=O)COC(=O)/C=C/c1ccccc1[N+](=O)[O-]` yielded a z-score of -0.0224.

The compound `O=C(Cc1coc2ccc3ccccc3c12)Nc1nccs1` yielded a z-score of 0.229.

On to `CCNC(=O)C1(c2ccccc2)CCCC1`, for which the z-score came to 0.12.

`O=C(CSc1nnc(-c2cnccn2)n1Cc1ccco1)c1ccccc1` came in with a z-score of 2.15.

For the compound `CC(C)CC1NC(=S)N(Cc2ccccc2)C1=O` (stereo unspecified), the z-score is -0.2.

`Cc1ccc(-n2c(N)c(C(=O)N3CCN(C)CC3)sc2=S)cc1` came in with a z-score of 0.948.

In turn, `C=C(C)C1Cc2cc3ccc(=O)oc3cc2O1` (stereo unspecified) returned a z-score of -0.0745.

Compound `CN(CC(=O)Nc1nccs1)S(=O)(=O)c1ccc(F)cc1` gave a z-score of -0.142.

`CC(C)(CO)NCc1ccccc1OCC(=O)Nc1ccccc1` showed a z-score of -0.32.

As for `c1ccc(-c2ccn3nnnc3n2)cc1`, the z-score is -0.244.

`COc1ccc(Cn2ccc(=O)c(Cc3c(Cl)cccc3Cl)c2C)cc1` had a z-score of -0.201.

The compound `COCCNc1nc(SCC(=O)N2CCN(c3ccccc3)CC2)nc2ccccc12` gave a z-score of 0.367.

`CC(O)C(=O)NCCOCCOCCNC(=O)C(C)O` (stereo unspecified) registered a z-score of 0.16.

With `O=C(Cn1cc2c(n1)CCCCC2)NCc1ccccn1`, the z-score is -0.195.

Compound `O=C(CSc1nc2[nH]ncc2c(=O)n1-c1ccccc1)c1ccc2c(c1)OCCO2` came in with a z-score of -0.27.

Compound `CCCS(=O)(=O)N1CCCC(C(=O)NCCN(CC)CC)C1` (stereo unspecified) displayed a z-score of -0.0442.

Consider `CC(=O)Nc1ccc(S(=O)(=O)N2CCN(c3ccc(C)c(Cl)c3)CC2)cc1`, for which the z-score worked out at 0.603.

Turning to `Cc1ccc(C(=O)NC2CCCCC2)cc1`, the z-score is -0.337.

`CN(C)/C=C(\C#N)C(=O)c1cccnc1Oc1cccc(F)c1` showed a z-score of -0.18.

`CCOC(=O)c1cnc2ccc(OCC)cc2c1NCc1cccnc1` displayed a z-score of -0.269.

As to `COc1ccc(CCNC(=O)C2CC(=O)N(c3ccccc3)C2)cc1OC` (stereo unspecified), the z-score turned out to be 0.172.

`CSCC[C@H](NC(=O)NCc1cccs1)C(=O)O` showed a z-score of 0.0281.

Regarding `Cc1c(CN(C)C)c2c(n1Cc1ccccc1)C(=O)c1ccc(Br)cc1-2`, the z-score was 0.566.

With `COC(=O)c1ccc(CSc2ccc3nnc(-c4ccccc4)n3n2)o1`, the z-score is -2.69.

Compound `COCCN1C(=O)C(O)=C(C(C)=O)C1c1ccc(OC)c(OC)c1` (stereo unspecified) yielded a z-score of 0.251.

The compound `COc1cc(Cl)c(C)cc1NC(=O)CSc1cc(Cl)ccc1Cl` registered a z-score of -0.433.

Regarding `COc1ccc(-c2nn(-c3ccccc3)cc2/C=N/NS(=O)(=O)c2ccccc2)cc1`, the z-score was -0.494.

On to `CCc1nc(NCc2ccco2)c2oc3ccccc3c2n1`, for which the z-score was -0.48.

The compound `O=C(CCn1c(SCC(=O)NCc2ccco2)nc2ccccc2c1=O)NCCc1ccccc1` yielded a z-score of -0.323.

As to `Cc1ccc2[nH]c(=O)c(CN(CCCN(C)C)C(=O)Nc3ccc(Cl)cc3)cc2c1`, the z-score was -0.611.

Turning to `COc1cc(/C=C(/C#N)c2nc3ccccc3[nH]2)ccc1OCC(=O)Nc1ccccc1C(C)C`, the z-score came to 0.123.

Compound `CCOC(=O)COn1c(=O)c(C)[n+]([O-])c2ccccc21` gave a z-score of 0.0302.

For the compound `FC(F)(F)c1cccc(N2CCN(c3nnnn3-c3ccccc3)CC2)c1`, the z-score worked out at 0.703.

The compound `CCCc1nc(SCC(=O)N2CCc3ccccc3C2)c2ccccc2n1` displayed a z-score of -0.569.

As for `CCCCC(=O)Nc1ccc(C)c(O)c1`, the z-score stood at 0.0987.

`OCCn1c(CSc2nnc(-c3ccco3)n2-c2ccccc2)nc2ccc(Cl)cc21` returned a z-score of -0.775.

`c1ccc(Oc2nc(N3CCOCC3)nc(N3CCOCC3)n2)cc1` registered a z-score of 0.259.

`Cc1cc(=O)oc(C)c1C(=O)N1CCc2c([nH]c3ccccc23)C1C(C)C` (stereo unspecified) had a z-score of 0.122.

For `Cn1cc(SCC(=O)Nc2nccs2)c2ccccc21`, the z-score is 1.18.

As for `N=P(N1CCOCC1)(N1CCOCC1)C12CC3CC(CC(C3)C1)C2`, the z-score turned out to be 0.173.

Compound `O=S(=O)(NCCCO)c1ccc2c(c1)Cc1cc(S(=O)(=O)NCCCO)ccc1-2` came in with a z-score of -0.0412.

Consider `Cc1ccc(S(=O)(=O)N2CCN(CC(=O)N/N=C\c3cccnc3)CC2)cc1`, for which the z-score is -0.154.

Compound `Cc1ccc(NC(=O)CSc2nnc(-c3ccc(S(=O)(=O)N4CCOCC4)cc3)n2C)cc1` gave a z-score of -0.033.

Regarding `O=C(CSc1nc(C2CCCCC2)n(-c2ccccc2)n1)NCCN1C(=O)CSC1=O`, the z-score came out at 0.242.

`CCc1ccc(/C=C2\SC(=S)N(CCCC(=O)Nc3ccccn3)C2=O)cc1`: the z-score is -0.092.

For the compound `C=CCNC(=O)C(C(=O)OCC)C1CCCCC1` (stereo unspecified), the z-score is 0.317.

The compound `O=C(CN1CCCCCC1=O)OCc1ncc(-c2ccccc2)o1` yielded a z-score of 0.469.

In turn, `CC(=O)Nc1nc(SCc2cccc3ccccc23)n[nH]1` had a z-score of -0.102.

For `CC(OC(=O)c1ccc(Cl)c(S(=O)(=O)N2CCc3ccccc32)c1)C(=O)Nc1ncc(Cl)cc1Cl` (stereo unspecified), the z-score is -0.529.

Take `COc1ccc(N2CSC3=C(C#N)C(c4ccc(OC)c(OC)c4)CC(=O)N3C2)c(OC)c1` (stereo unspecified): the z-score is -0.269.

For the compound `C/C(=N\NC(=S)Nc1ccc(F)cc1)c1ccc2c(c1)OCCO2`, the z-score is active: 6.87.

As for `OCCOc1nnnn1-c1ccccc1`, the z-score turned out to be 0.502.

Turning to `COc1ccc(N2CCN(C3CC(=O)N(Cc4ccc(N5CCCC5=O)cc4)C3=O)CC2)cc1` (stereo unspecified), the z-score is -0.321.

Compound `CC(=O)OC(C(=O)NC1CCCCC1)c1cccc(C)c1` (stereo unspecified) had a z-score of -0.192.

Regarding `C(=N\N1CCN(Cc2ccccc2)CC1)/c1cccs1`, the z-score is -0.298.

For `O=C(O)C1CCCN1C(=O)OCc1ccccc1` (stereo unspecified), the z-score is -0.414.

In turn, `COc1ccccc1C(=O)NCC(=O)OC(C)C(=O)NC(=O)NC1CCCCC1` (stereo unspecified) displayed a z-score of -0.434.

Compound `CN1CCC(=NNC(=O)CSCc2ccccc2)CC1` came in with a z-score of -0.494.

In the case of `CC1=C(C(=O)Nc2ccccc2)C(c2cccnc2)n2nc(-c3cccnc3)nc2N1` (stereo unspecified), the z-score was -0.446.

In turn, `Cc1cc(NC(=O)CSc2cn(C)c3ccccc23)no1` displayed a z-score of -0.147.

As for `COc1ccc(/C=C2\SC(=O)NC2=S)cc1OC`, the z-score is 2.05.

`O=[N+]([O-])c1ccccc1/C=N/Nc1nnc(-c2ccccc2)c(-c2ccccc2)n1` showed a z-score of 0.316.

Turning to `Cc1cc(-c2cccc([N+](=O)[O-])c2)nc2ccc3ccccc3c12`, the z-score was -0.352.

In turn, `CCn1cc(-c2nnnn2-c2ccc(Cl)cc2)c(=O)c2ccccc21` returned a z-score of 0.702.

Turning to `CCC(C)c1ccc(Nc2ncccc2C#N)cc1` (stereo unspecified), the z-score was -0.15.

`COC(=O)/C=C/C(=O)Nc1cccnc1` came in with a z-score of -0.364.

In turn, `Cc1ccc(NC(=O)CSc2nnc(-c3cccs3)o2)cc1S(=O)(=O)N1CCCCC1` showed a z-score of -0.0809.

Take `N#CCCCN1C(=O)C(O)(CC(=O)c2ccc3c(c2)OCCO3)c2ccccc21` (stereo unspecified): the z-score worked out at 0.506.

As to `Cc1ccc(S(=O)(=O)N(C)CC(=O)O/N=C(\N)c2ccc([N+](=O)[O-])cc2)cc1`, the z-score is -0.621.

`CNS(=O)(=O)c1ccc(NCC2COc3ccccc3O2)c([N+](=O)[O-])c1` (stereo unspecified) came in with a z-score of -0.487.

Turning to `CCOC(=O)C1CCN(C(=O)Cc2c(F)cccc2Cl)CC1`, the z-score was -0.334.

In turn, `COc1cc2c(cc1OC)CN(C(=O)c1ccc(OC)c(S(=O)(=O)N3CCOCC3)c1)CC2` gave a z-score of -0.539.
